{
  "source": "PubChem BioAssay AID2546",
  "about": "(National Center for Advancing Translational Sciences (NCATS), 2010)",
  "note": "Among all 310,000 compounds or so, about 11,000 (3.5%) were called active. Inconclusive results, whose numbers are uncertain, are shown with a selection of clear calls. The call rests on the fitted dose curve; in most records, active means well fitted inhibition curve with a large enough effect; inconclusive means small, poorly fitted or top-dose-only effect, or effect the other way; inactive means flat fitted curve, though single readings scatter. No potency is given beside an inconclusive call; the fits are too rough. On the % scale 0 is the no-effect control and ±100 the full control effect; potency means the concentration at half of the fitted maximal effect; tags describe the fitted curve by direction and shape.",
  "data": [
    {"experiment": "VP16 counterscreen qHTS for inhibitors of ROR gamma transcriptional activity;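 further: Gal4-VP16 expression switched on by copper sulfate through the metallothionein promoter; nearly all actives have a fitted effect of over 50% in size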", "conditions": "Drosophila S2 Gal4-VP16 UAS-luciferase, luminescence, 20 h; activity, negative = inhibition: at 53.6 µM (top of the series)", "values": [
      {"smiles": "CCOC(=O)C1=C2NC(=O)c3ccccc3N2C(=O)C1", "Potency": "inactive"},
      {"smiles": "O=C(Nc1ccc(Oc2ccccc2)cc1)C1CCN(c2c3c(nc4ncnn24)CCC3)CC1", "Potency": "inconclusive [inhibitor, single point]"},
      {"smiles": "Cc1ccccc1-n1c(=S)[nH]c2nc3c(cc2c1=O)COC(C)(C)C3", "Potency": "active: 11.2 µM"},
      {"smiles": "CCn1cc(C2=NC(C(C)C)CO2)c2ccccc21", "note": "(configuration not stated)", "Potency": "inconclusive [inhibitor, single point]"},
      {"smiles": "CC(=O)/C(=N\\Nc1ccccc1Cl)Sc1cccc2cccnc12", "Potency": "active: 4.47 µM"},
      {"smiles": "C[C@H]1CN(CCc2ccccc2)C(=O)[C@@H]1CC(=O)NCc1ccccc1", "Potency": "inconclusive [inhibitor, single point]"},
      {"smiles": "Cc1ccc(C(=O)N/N=C\\c2sccc2C)cn1", "Potency": "inconclusive [inhibitor, partial curve]"},
      {"smiles": "COc1ccc(C2=Nn3c(nnc3-c3ccc(OC)cc3OC)SC2)c(OC)c1", "Potency": "inactive"},
      {"smiles": "COC(=O)c1ccc(C(=O)OC)c(NC(=S)N2CCCC(C)C2)c1", "note": "(configuration not stated)", "Potency": "inactive"},
      {"smiles": "C/C(=N\\NC(=S)NCCc1ccccc1)c1ccc(O)cc1O", "Potency": "inconclusive [inhibitor, single point]"},
      {"smiles": "Cc1cc(C)c2c(=O)c3c(oc2c1)C(=O)N(CCO)C3c1cccc(O)c1", "note": "(configuration not stated)", "Potency": "inconclusive [inhibitor, single point]"},
      {"smiles": "N#C/C(=C/c1cccs1)c1ccccn1", "Potency": "inconclusive [activator, full curve]"},
      {"smiles": "Cc1nc(-c2ccc([N+](=O)[O-])cc2)nc2[nH]ccc(=O)c12", "Potency": "inactive"},
      {"smiles": "Nc1[nH]c(N=NC(=O)c2ccccc2)c2ccccc12", "Potency": "inconclusive [inhibitor, single point]"},
      {"smiles": "CCCCN(CCCC)CC(O)c1cc(Cl)cc2c1-c1ccc(Cl)cc1/C2=C/c1ccc(Cl)cc1", "note": "(configuration not stated)", "Potency": "inconclusive [inhibitor, single point]"},
      {"smiles": "Cc1ccc(-n2nc3c4c(cccc4c2=O)-c2ccccc2-3)cc1", "Potency": "inactive"},
      {"smiles": "NC(=O)N/N=C/c1c(Sc2nnnn2-c2ccccc2)nc2ccccn2c1=O", "Potency": "inconclusive [inhibitor, partial curve, poor fit]"},
      {"smiles": "CCCCn1c(=S)[nH]c2ncccc2c1=O", "Potency": "active: 3.55 µM"},
      {"smiles": "O=S(=O)(NCc1cccnc1)c1ccccc1", "Potency": "inconclusive [inhibitor, single point]"},
      {"smiles": "COc1ccccc1/C=C1\\S/C(=N/NC(=O)c2cccc(Br)c2)NC1=O", "Potency": "active: 0.562 µM"},
      {"smiles": "Cc1ccc(-n2c(Cc3cccc4ccccc34)n[nH]c2=S)c(C)c1", "Potency": "inconclusive [inhibitor, partial curve]"},
      {"smiles": "O=C(Cc1ccccc1)NNC(=S)Nc1ccc(Cl)cc1", "Potency": "inconclusive [inhibitor, single point]"},
      {"smiles": "O=C(Nc1ncccc1O)c1ccc(Oc2ccccc2)cc1", "Potency": "active: 14.1 µM"},
      {"smiles": "Cc1nn2c(Nc3ccc(F)cc3)c3c(nc2c1-c1ccccc1)CCC3", "Potency": "inconclusive [inhibitor, full curve]"},
      {"smiles": "CC(C)(C)c1ccc(C(=O)CSc2ncn[nH]2)cc1", "Potency": "inconclusive [inhibitor, single point]"},
      {"smiles": "O=C(CN1CCN(S(=O)(=O)c2ccc(Cl)cc2)CC1)Nc1ccc2c(c1)CCC2", "Potency": "inconclusive [inhibitor, single point]"},
      {"smiles": "COc1ccc2nc(/N=C\\N(C)C)sc2c1", "Potency": "inactive"},
      {"smiles": "CC(=O)c1c(N2CCCC2)[nH]c(-c2ccccc2)nc1=S", "Potency": "active: 7.94 µM"},
      {"smiles": "CC(C(=O)NCCc1ccc(F)cc1)N1CCN(Cc2ccccc2)CC1", "note": "(configuration not stated)", "activity, negative = inhibition": "inactive: -5.01% [at 10 µM]"},
      {"smiles": "C[C@@H]1CCC[C@H](C)N1", "Potency": "inactive"},
      {"smiles": "COc1ccc(CC(=O)NC2CC(C)(C)NC(C)(C)C2)cc1OC", "Potency": "inactive"},
      {"smiles": "O=C(NCCCCN1CCN(c2cccc(Cl)c2Cl)CC1)c1ccc2c(c1)Cc1ccccc1-2", "Potency": "inconclusive [inhibitor, full curve]"},
      {"smiles": "CCc1c(O)cc2n(c1=O)-c1ccc(Cl)cc1C2(C)C", "Potency": "inconclusive [inhibitor, single point]"},
      {"smiles": "O=C(NC1=C(NC2CCS(=O)(=O)C2)C(=O)c2ccccc2C1=O)c1ccccc1", "note": "(configuration not stated)", "Potency": "inconclusive [inhibitor, single point]"},
      {"smiles": "Fc1nc(F)c(F)c(NCCCNc2c(F)c(F)nc(F)c2F)c1F", "Potency": "inconclusive [inhibitor, single point]"},
      {"smiles": "Cc1ccc(C(=O)NC(=S)/C=C2\\N(C)c3ccccc3C2(C)C)cc1", "Potency": "active: 5.62 µM"},
      {"smiles": "COc1ccc(CNC(=O)NC2CCCCC2)cc1", "Potency": "inconclusive [inhibitor, partial curve]"},
      {"smiles": "CC(C)NC(=S)NN=C1c2ccccc2-c2ccccc21", "Potency": "inconclusive [inhibitor, single point]"},
      {"smiles": "CN(Cc1cccc(F)c1)C(=O)c1cccc(S(=O)(=O)N2CCN(Cc3ccccc3)CC2)c1", "Potency": "inconclusive [inhibitor, single point]"},
      {"smiles": "CCOc1ccccc1NC(=S)N1CCC(c2nc3ccccc3o2)CC1", "Potency": "inconclusive [inhibitor, single point]"},
      {"smiles": "Cc1cc(C)c(C)c(S(=O)(=O)NCc2ccncc2)c1C", "Potency": "inconclusive [inhibitor, single point]"},
      {"smiles": "O=C(NCCC1=CCCCC1)NC1CCCCC1", "Potency": "inconclusive [inhibitor, single point]"},
      {"smiles": "CC(C)C1NC(=S)N(C2CCCCC2)C1=O", "note": "(configuration not stated)", "Potency": "inconclusive [inhibitor, single point]"},
      {"smiles": "CC(C)NC(=O)C(c1ccc(F)cc1)N(C(=O)CCC(=O)Nc1ccccn1)C1CCCC1", "note": "(configuration not stated)", "Potency": "inconclusive [inhibitor, full curve, poor fit]"},
      {"smiles": "CCc1ccc(-c2csc(NC(=O)COC(=O)CCc3nc4ccccc4s3)n2)cc1", "Potency": "inconclusive [activator, single point]"},
      {"smiles": "CC1CCN(Cc2c(C(=O)N/N=C/c3ccccc3O)nnn2-c2nonc2N)CC1", "Potency": "active: 7.94 µM"},
      {"smiles": "O=C(COC(=O)/C=C/C(=O)N1CCN(c2ccccc2)CC1)NC(c1ccccc1)c1ccccc1", "Potency": "inconclusive [inhibitor, single point]"},
      {"smiles": "COc1cccc(CNCCc2c[nH]c3ccccc23)c1OCc1ccc(F)cc1", "Potency": "inconclusive [inhibitor, single point]"},
      {"smiles": "O=C(COc1cccnc1[N+](=O)[O-])Nc1ccc2c(c1)OC(F)(F)O2", "Potency": "inconclusive [inhibitor, single point]"},
      {"smiles": "O=C(N/N=C/c1ccc[nH]1)c1ccccc1O", "Potency": "active: 5.62 µM"},
      {"smiles": "CC(C)C(=O)N1CCN(c2ccc(NC(=S)NC(=O)c3cc4ccccc4o3)cc2)CC1", "Potency": "inconclusive [inhibitor, partial curve]"},
      {"smiles": "CCCN(CCC)C(=S)NC(=O)c1ccc(Cl)cc1Cl", "Potency": "active: 0.891 µM"},
      {"smiles": "O=C(Nc1nc2c(s1)CCCC2)c1cc2n(n1)C(C(F)(F)F)CC(C1CC1)N2", "note": "(configuration not stated)", "Potency": "inactive"},
      {"smiles": "O=C(Nc1nnc(-c2ccccc2Cl)o1)c1ccc(S(=O)(=O)N2CCCCCC2)cc1", "Potency": "active: 0.398 µM"},
      {"smiles": "CC(/C=C\\C=C\\c1ccccc1)=N\\NC(=O)c1cncc(Br)c1", "Potency": "active: 6.31 µM"},
      {"smiles": "CCOc1cc(/C=N\\Nc2nc(Nc3ccccc3)nc(N3CCOCC3)n2)ccc1OC(=O)c1ccco1", "Potency": "inactive"},
      {"smiles": "Oc1ccc(/C=N/N=C(c2ccccc2)c2ccccc2)c(O)c1O", "Potency": "inconclusive [inhibitor, single point]"},
      {"smiles": "CCN(CC)CCNC(=O)CCc1c(C)nc2c(c(C)nn2-c2ccc(C)cc2)c1C", "Potency": "inconclusive [inhibitor, full curve, poor fit]"},
      {"smiles": "CCN1C(=O)C(CC(=O)Nc2ccccc2Cl)N(NC(=O)c2cccc(F)c2)C1=S", "note": "(configuration not stated)", "Potency": "inconclusive [inhibitor, single point]"},
      {"smiles": "O=c1[nH]c2cc(Cl)c(O)cc2o1", "Potency": "inactive"},
      {"smiles": "COc1cccc(CN(C(=O)c2ccccc2)C2CCS(=O)(=O)C2)c1", "note": "(configuration not stated)", "Potency": "inactive"},
      {"smiles": "COc1ccc(-c2nc3cc(NC(=S)NC(=O)Cc4ccccc4)ccc3o2)cc1", "Potency": "active: 2.51 µM"},
      {"smiles": "COc1ccc(-n2c(=S)[nH]c3sc4c(c3c2=O)CCc2ccccc2-4)cc1", "Potency": "active: 0.251 µM"},
      {"smiles": "O=c1c2ccccc2nc(N/N=C/c2c(O)ccc3ccccc23)n1O", "Potency": "active: 12.6 µM"},
      {"smiles": "COc1ccc(-n2c(=S)[nH]c3cc(C(=O)N4CCN(c5ccccc5)CC4)ccc3c2=O)cc1", "Potency": "inconclusive [inhibitor, single point]"},
      {"smiles": "Cc1ccc(C)c(-c2nn(-c3cc(N4CCN(CCO)CC4)ccc3[N+](=O)[O-])c(=O)c3ccccc23)c1", "Potency": "inconclusive [inhibitor, single point]"},
      {"smiles": "c1ccc(CCNc2ncnc3c2cnn3-c2ccccc2)cc1", "Potency": "inconclusive [activator, full curve, poor fit]"},
      {"smiles": "COc1ccc(C(=O)C(CCC(CNC(C)(C)C)C(=O)c2ccc(OC)cc2)CNC(C)(C)C)cc1", "note": "(configuration not stated)", "Potency": "active: 12.6 µM"},
      {"smiles": "COCCNc1nnc(SC(C)C(=O)Nc2ccc(-c3nc4ccc(C)cc4s3)cc2)s1", "note": "(configuration not stated)", "Potency": "inconclusive [inhibitor, single point]"},
      {"smiles": "O=C(/C=C/c1ccccc1)c1cc(Br)ccc(=O)c1O", "Potency": "inconclusive [inhibitor, single point]"},
      {"smiles": "c1ccc(CNc2ccc3ccccc3n2)nc1", "Potency": "inconclusive [inhibitor, single point]"},
      {"smiles": "Cc1ccc(Sc2ccc(NC(=O)CCl)cc2)c(C)c1", "Potency": "active: 5.01 µM"}
    ]}
  ]
}
